Source: the RNAGym collection of RNA variant scans (doi:10.1093/nar/gkz1192)
The source gives no read counts; variants with many changes may rest on few reads.

B1: CPEB3 Ribozyme (parent)
chain: UAACAGGGGGCCACAGCAGAAGCGUUCACGUCGCAGCCCCUGUCAGAUUCUGGUGAAUCUGCGAAUUCUGCUGUAUAUCUC

Variants of: B1
Assay: self-cleavage, relative activity (ratio to wild type); higher = more cleavage; in vitro, sequencing
Method in brief: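 Libraries of CPEB3 self-cleaving ribozyme mutants came from rounds of error-prone PCR and carried barcodes, which DNA sequencing matched to variants. In vitro transcription used T7 RNA polymerase at 37°C for 5 hours, with a further 15 min in DNase I before EDTA stopped the reaction; the ribozymes cleaved during both steps. The RNA was reverse transcribed with template switching and sequenced on Illumina. Relative activity is the cleaved/total read fraction of a variant divided by that of the unmutated ribozyme, averaged over three batches with at least 5 reads.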
For A3U A35U U43C U49C A57G A77G U78C, the self-cleavage was 0.1.
A3U C38U A45G gave a self-cleavage of 0.36.
Work on A3U A20G U78C U80C yielded a self-cleavage of 0.62.
Work on A3U G33A U43C G55U A64U U80C yielded a self-cleavage of 0.08.
A3U C11G A15U U25A gave a self-cleavage of 0.07.
A3U G10A U58C gave a self-cleavage of 0.07.
With A3U A45G U60C the self-cleavage was 1.
A3U U25A U48C U66C U67C U69C U72C showed a self-cleavage of 0.23.
A3U A21U G30A U31C U54A showed a self-cleavage of 0.12.
For A3U A21G U26C A28G, the self-cleavage was 0.12.
With A3U G36U U41C U49A U60C the self-cleavage was 0.11.
A3U G10A U43C A45U U54A U66A A75G showed a self-cleavage of 0.04.
A3U G8U U26A U41C U48C A65G showed a self-cleavage of 0.04.
A3U A47G U48A U49A gave a self-cleavage of 0.35.
With A3U A45G U78C the self-cleavage was 0.93.
For A3U A45G G52A U60C A75G, the self-cleavage was 1.14.
A3U A28G C40A U41C A64U U78C gave a self-cleavage of 0.11.
Variant A3U G36A A56U has a self-cleavage of 0.14.
Work on A3U A45U A65U A75G C81U yielded a self-cleavage of 0.06.
Variant A3U A18U U41C G61A U69G C79U has a self-cleavage of 0.44.
For A3U A45U C68A, the self-cleavage was 0.02.
A3U G16U U26C A35G G55A gave a self-cleavage of 0.11.
A3U A21G U51C gave a self-cleavage of 0.74.
With A3U A28G A64G the self-cleavage was 0.5.
A3U A18G U41G gave a self-cleavage of 0.46.
With A3U A18G U41A the self-cleavage was 0.51.
Variant A3U A20G A35G U41A has a self-cleavage of 0.41.
A3U A21G U26A C37G U60C showed a self-cleavage of 0.23.
Variant A3U C39G U67C has a self-cleavage of 0.18.
For A3U C12G U67G, the self-cleavage was 0.19.
Work on A3U G53A U69C yielded a self-cleavage of 0.71.
In the case of A3U G9C A47U U51C, the self-cleavage is reported as 0.14.
A3U A20U C23G U25C A45G A57G U80C showed a self-cleavage of 0.11.
A3U G6A A13U U41G U69C U72C showed a self-cleavage of 0.09.
Work on A3U C4U U60C yielded a self-cleavage of 0.66.
A3U A20G C27A U60C U69A showed a self-cleavage of 0.11.
With A3U G33U G61C the self-cleavage was 0.1.
In the case of A3U A20C U48C, the self-cleavage is reported as 0.52.
For A3U A28U U48C, the self-cleavage was 0.54.
Work on A3U A20G A35U C39U U72A U80C yielded a self-cleavage of 0.13.
Variant A3U G22A G30C U41C U60C has a self-cleavage of 0.24.
With A3U A64U U80C the self-cleavage was 0.58.
A3U A20G U26C U31A U67A showed a self-cleavage of 0.4.
A3U G9A A18G U25A G46A U49A U58A gave a self-cleavage of 0.04.
A3U C32U A45G gave a self-cleavage of 0.36.
Variant A3U A35G C37G A57U G61U U67G A77G has a self-cleavage of 0.1.
A3U C27U A35G gave a self-cleavage of 0.48.
For A3U C4U A47U U51C U69C, the self-cleavage was 0.41.
Work on A3U A21G A47U U48A G73A yielded a self-cleavage of 0.21.
In the case of A3U A56U C59G A64U, the self-cleavage is reported as 0.2.
A3U A20G A45C U67A showed a self-cleavage of 0.11.
Variant A3U G7U G10A G24A U41A has a self-cleavage of 0.05.
Work on A3U G9C U60A yielded a self-cleavage of 0.08.
With A3U G24A G36U U41C the self-cleavage was 0.11.
A3U A47G U48C U69C gave a self-cleavage of 0.2.
A3U C39U A57G A64G gave a self-cleavage of 0.4.
A3U G63A U78C showed a self-cleavage of 0.8.
Variant A3U A18U U31C C38U U67G has a self-cleavage of 0.12.
Work on A3U A21U U49C A57G yielded a self-cleavage of 0.1.
Work on A3U G8U A35U A65G yielded a self-cleavage of 0.07.
Variant A3U C17A U60G C62U A64G has a self-cleavage of 0.17.
Variant A3U A28U G36A U41A U69C U72C has a self-cleavage of 0.14.
Work on A3U A18U A45G A56G yielded a self-cleavage of 0.31.
For A3U C71G U78C, the self-cleavage was 0.5.
Variant A3U A35U U48C U69C U72C has a self-cleavage of 0.2.
Variant A3U C14U A18G A21G G30A has a self-cleavage of 0.06.
A3U A20U A21G U31C A45G U49C showed a self-cleavage of 0.05.
A3U A28G A64U U72A U78A showed a self-cleavage of 0.16.
In the case of A3U A56G U69G, the self-cleavage is reported as 0.6.
A3U G24C U31C G46U A65G U80C showed a self-cleavage of 0.2.
With A3U A35G C39U U54A A65G the self-cleavage was 0.86.
Work on A3U A57U U74C yielded a self-cleavage of 0.99.
For A3U A57U U74A, the self-cleavage was 1.17.
A3U A20G U41C U69A U78C gave a self-cleavage of 0.51.
A3U G9A U31C A64U showed a self-cleavage of 0.15.
Variant A3U A35G A56G A57G A64G has a self-cleavage of 1.1.
In the case of A3U A20G A21U C29A, the self-cleavage is reported as 0.44.
Work on A3U A18U A45G yielded a self-cleavage of 0.63.
Work on A3U C27A C38A G42A U66C yielded a self-cleavage of 0.12.
A3U A28G A47U A64G gave a self-cleavage of 0.28.
Work on A3U A18G U31C yielded a self-cleavage of 0.49.
Variant A3U A47G A64G has a self-cleavage of 0.47.
With A3U G6C A15G A56G the self-cleavage was 0.62.
With A3U C12U C14U the self-cleavage was 1.21.
